For 89 molecules, survival results are on record in PubChem BioAssay AID463173 (ICCB-Longwood Screening Facility, Harvard Medical School, 2010).

Screen size: about 52,000 compounds; about 1,700 (3.3%) were called active. Rule as the data show it: active = survival mostly below about 52% (no sharp cut-off); inactive = mostly above about 56%. The list shows a part of the results.

For this assay, the system named is Wild type. The experiment in a line: growth inhibition of S. aureus wild type versus tarO mutant, primary screen, teichoic acid synthesis inhibitors, RN4220, OD600 (AID 463173). The conditions noted are these: S. aureus RN4220 wild type/DeltatarO growth, OD600, 18 h, stronger effect = lower value, screened at 18.75 µg/mL (by protocol).
Turning to `CCN1C(=O)C2C(c3ccccc3C)NC(Cc3ccc(O)cc3)(C(=O)OC)C2C1=O` (centres undefined), the survival was inactive: 110%.
Turning to `CC(Oc1ccccc1)C(=O)NCc1ccccn1` (centres undefined), the survival was inactive: 108%.
For the molecule `COc1ccccc1Cc1nc2ccccc2nc1SCC(=O)NCc1ccc(C)cc1`, the survival is inactive: 73%.
Regarding `COc1ccc(C)cc1NC(=O)Cn1nc(N2CCN(c3ccccc3OC)CC2)ccc1=O`, the survival is inactive: 83%.
With `Cc1noc(C)c1S(=O)(=O)N(CC(=O)NCc1ccccc1)c1ccc(C(C)C)cc1` the figure was inactive: 83%; with `COc1ccccc1CNC(=O)C(=O)NCC(c1cccnc1)N1CCN(c2ccccc2)CC1` (centres undefined), inactive: 77%.
With `COc1ccc(-c2nc(SCC(=O)NC3CCCC3)c(-c3ccc(F)cc3)[nH]2)cc1OC` the figure was inactive: 68%; with `O=C(COCc1cc(-c2ccco2)on1)Nc1cc(Cl)ccc1O`, active: -2%.
To `O=C(Nc1ccc2oc(-c3cccnc3)nc2c1)c1ccccc1F` belongs inactive: 86%; to `CC(C)c1nc2ccccc2c(=O)[nH]1`, inactive: 98%.
Take `CC(=O)N1CCCc2cc(S(=O)(=O)Nc3ccc(Cl)cc3F)ccc21`: the survival was inactive: 63%.
With `COCCNC(=O)CCn1nc(-c2ccc(Cl)cc2)c2ccccc2c1=O` the figure was inactive: 90%; with `COc1ccc(CC(=O)N2CCc3c([nH]c4ccccc34)C2c2ccc(SC)cc2)cc1` (centres undefined), inactive: 71%.
To `CC1CCN(C(c2ccc(F)cc2)c2sc3nc(-c4ccco4)nn3c2O)CC1` (centres undefined) belongs inactive: 63%.
With `COc1ccc(C(=O)N2CCN(C(=O)COc3ccccc3)CC2)cc1OC` the figure was inactive: 79%; with `COc1ccc(-c2nc3ccccc3s2)cc1NC(=O)c1cc(OC)c(OC)c(OC)c1`, inactive: 82%; with `CCN(CC)c1nc(Nc2ccc(Cl)cc2)nc(OCC#N)n1`, inactive: 113%.
Regarding `COc1ccc(NC(=O)C(NC(=O)/C=C\c2ccc3c(c2)OCO3)c2ccc(C)cc2)cc1` (centres undefined), the survival is inactive: 80%.
To `CCc1ccc(-n2c(N3CCN(c4ccc(F)cc4)CC3)nc3ccccc3c2=O)cc1` belongs inactive: 85%.
To `O=C(c1ccc2c(c1)N(Cc1ccccc1)C(=O)c1ccccc1S2(=O)=O)N1CCOCC1` belongs inactive: 84%; to `COc1ccc(-c2nc3n(n2)C(c2ccc(O)cc2)C(C(=O)Nc2cccnc2)=C(C)N3)cc1OC` (centres undefined), inactive: 92%; to `Cc1ccc2c(c1)c1c3n2CCN=C3CCC1`, inactive: 112%.
As to `Cc1cc(S(=O)(=O)Nc2cc3c(cc2N2CCOCC2)n(C)c(=O)c(=O)n3C)ccc1F`, the survival is inactive: 71%.
As to `COc1ccccc1CNc1nccn(-c2ccc(F)cc2)c1=O`, the survival was inactive: 76%.
To `CCCn1c2ccccc2c2cnn(CC(=O)NCC3CCN(Cc4ccccc4C)CC3)c(=O)c21` belongs active: 14%; to `CCOc1ccc(CCNC(=O)NCc2noc3ccc(C)cc23)cc1`, inactive: 91%; to `CCOCCc1nn2c(=O)cc(COC(=O)c3ccc(NC(=O)c4cccs4)cc3)nc2s1`, inactive: 118%.
With `Cc1cccc(C(=O)N2CCc3cc(CNC(=O)c4ccco4)ccc32)c1` the figure was inactive: 87%; with `CCCNC(=O)c1ccc(Cn2c(SCC(=O)NC(C)C)nc3ccccc3c2=O)cc1`, inactive: 75%; with `COc1ccc(C(=O)Nc2nc(-c3ccc(Br)cc3)ns2)cc1`, inactive: 80%.
`Cc1csc2nc(COc3ccc(NC(=O)c4ccccc4F)cc3)cc(=O)n12`: the survival was inactive: 93%.
To `O=C(NC1CC(=O)N(c2ccc(F)cc2)C1)c1ccc(S(=O)(=O)N2CCOCC2)cc1` (centres undefined) belongs inactive: 92%.
To `COc1ccc(NC(=O)Cn2c(=O)c3cccn3c3ccccc32)cc1` belongs inactive: 89%; to `Cn1c(=O)c2c(-c3ccccc3)n3c(c2n(C)c1=O)C(c1ccc([N+](=O)[O-])cc1)Nc1ccccc1-3` (centres undefined), inactive: 21%; to `COc1ccc(S(=O)(=O)NCCc2sc(-c3cccnc3)nc2C)cc1`, inactive: 73%.
`CCOC(=O)c1c(NC(=O)c2ccc(S(=O)(=O)N3CCCC(C)C3)cc2)sc2c1CC(C)(C)NC2(C)C` (centres undefined): the survival was inactive: 83%.
To `CCOCCCN1C(=O)CN(C2CCCCCC2)C(=O)C1c1ccc(OCC)c(OC)c1` (centres undefined) belongs inactive: 124%; to `O=c1[nH]c2ccccc2c(O)c1-c1nc2ccccc2c(=O)[nH]1`, inactive: 109%; to `CC(=O)Nc1ccc(OC(=O)N2CCCC2)cc1`, inactive: 106%.
To `Cc1ccc(C(=O)c2oc3ccccc3c2NC(=O)c2cc(-c3ccccc3)on2)cc1` belongs inactive: 87%; to `Cc1ccc(-n2ncc3c(Nc4ccc5c(c4)OCCO5)ncnc32)cc1Cl`, inactive: 128%.
To `CCOC(=O)c1[nH]c(C)c(CCC(=O)N2CCN(c3ccc(OC)cc3)CC2)c1C` belongs inactive: 82%.
On to `COc1cc(OC)cc(C(=O)Nc2ccc3c(c2)CCCN3C(=O)c2cccs2)c1`, for which the survival is inactive: 118%.
For the molecule `CCCCN(C)S(=O)(=O)c1ccc(C(=O)Nc2sc3c(c2C(=O)OCC)CCN(C(C)C)C3)cc1`, the survival was inactive: 72%.
With `CCSc1nc(-c2ccccc2)nc2c1Cc1c(CO)cnc(C)c1O2` the figure was inactive: 87%; with `CCOC(=O)C1CCN(C(=O)C2CCN(S(=O)(=O)c3c(C)noc3/C=C/c3ccc(C)cc3)CC2)CC1`, inactive: 146%.
As to `Cc1ccc(C(C)C)c(OCC(=O)Nc2ccc3c(c2)nc(CCNC(=O)c2ccco2)n3C)c1`, the survival is inactive: 88%.
To `CCCC1=Nc2cc(C(=O)NCc3ccccc3)ccc2Sc2ccccc21` belongs inactive: 86%.
To `O=C(O)CCC(=O)N1CCc2cc(S(=O)(=O)NCc3ccc(F)cc3)ccc21` belongs inactive: 85%; to `COc1ccc(NC(=O)c2cccc3c(=O)c4c([nH]c23)CCCC4)cc1`, inactive: 76%; to `CCOc1ccc(NC(=O)Cn2c(=O)n(Cc3ccccc3)c(=O)c3sc4ccccc4c32)cc1`, inactive: 78%.
To `N#Cc1ccc(-c2cccnc2)n(CC(=O)NCc2ccccc2)c1=O` belongs inactive: 122%.
With `Cc1cc(C)cc(NC(=O)CN2C(=O)CSc3ccc(S(=O)(=O)N4CCCC4)cc32)c1`, the survival is inactive: 88%.
Turning to `Cc1cc(F)c(F)cc1C(=O)N1CCN(C)CC1`, the survival was inactive: 112%.
For the molecule `CCOC(=O)c1c(NC(=O)CSc2cn(CCNC(=O)c3ccccc3OC)c3ccccc23)sc2c1CCCC2`, the survival was inactive: 88%.
To `O=C(NCC1CCN(Cc2cccc(F)c2)CC1)c1cc2ccc3cccnc3c2[nH]1` belongs inactive: 65%; to `Nc1n[nH]c(-c2ccc(Cl)cc2)c1Cl`, inactive: 119%; to `Cc1cc(CN2CCC(C)CC2)cc(C)c1O`, inactive: 107%.
With `Cc1nn(CC(=O)N2CCN(c3ccccc3)CC2)c(=O)c2cc3cc(F)ccc3n12` the figure was inactive: 77%; with `CC1=C(c2ccc(C(C)C)cc2)S(=O)(=O)N=C1N1CCC(C(=O)NCc2ccco2)CC1`, inactive: 63%.
To `CCOc1ccc(NC(=O)c2c(NC(=O)c3cccc(C)c3)sc3c2CCC3)cc1` belongs inactive: 130%; to `Cc1ccc(CNC(=O)Cn2c(=O)cc(-c3ccccc3)c3c(C)nn(C)c32)cc1`, inactive: 72%.
Take `COc1ccccc1N1CCN(S(=O)(=O)CCNC(=O)COc2ccc(F)cc2)CC1`: the survival was inactive: 124%.
Turning to `CCN(CC)CC(=O)Oc1ccc(NC2=NS(=O)(=O)c3ccccc32)cc1`, the survival was inactive: 100%.
With `CS(=O)(=O)NCc1nnc(SCC(=O)NC2CCCCC2)n1-c1ccc(F)cc1` the figure was inactive: 102%; with `COc1ccc(CCNc2ncnc3c2c(-c2ccccc2)cn3-c2cccc(Cl)c2)cc1OC`, inactive: 97%.
With `Cc1c(C(=O)NCCc2ccccc2)cccc1-n1cnc2cccnc21` the figure was inactive: 70%; with `CCc1ccc(NC(=O)CC2C(=O)N(c3ccc(OC)cc3)C(=O)N2Cc2ccc(OC)cc2)cc1` (centres undefined), inactive: 73%; with `COc1cc(SC)ccc1C(=O)NCc1ccccc1`, inactive: 98%.
To `CCn1c(=O)c2sccc2n2c(CCCC(=O)N3CCN(c4cc(C)ccc4C)CC3)nnc12` belongs inactive: 98%.
Consider `COc1ccccc1CNC(=O)C1CCN(S(=O)(=O)c2c(C)noc2/C=C/c2cccs2)CC1`, for which the survival is inactive: 89%.
Consider `Cc1cc(=O)n(Cc2ccc(F)cc2Cl)c2c1c(C)nn2-c1ccccc1`, for which the survival was inactive: 70%.
With `Cc1ccn2c(=O)c(C(=O)NCCc3ccc(S(N)(=O)=O)cc3)c(O)nc2c1` the figure was inactive: 72%.
To `COc1ccc(S(=O)(=O)NC2(C(F)(F)F)NC(=O)N(CCc3ccc(OC)c(OC)c3)C2=O)cc1` (centres undefined) belongs inactive: 147%; to `CS(=O)(=O)NCCc1csc2nc(-c3ccccc3)nn12`, active: -4%.
With `C/C(=N\NC(N)N)C1CCCCCCCCCCC1` the figure was active: -1%.
Consider `Cc1ccc(NCc2ccccc2-c2nnc(-c3ccccc3Cl)o2)cc1Cl`, for which the survival is inactive: 79%.
To `COc1ccc(N2C(=O)CSC23C(=O)N(CC(=O)NCc2ccccc2)c2ccccc23)cc1` (centres undefined) belongs inactive: 67%; to `COc1ccc(NC(=O)NCc2cccn2Cc2ccc(F)cc2)cc1OC`, inactive: 77%; to `Cc1cc(Nc2ccccc2Cl)n2nc(-c3ccco3)nc2n1`, inactive: 78%.
For the molecule `COc1cccc(NC(=O)N(Cc2cn(C)c3ccccc23)C2CCCCC2)c1`, the survival was active: 0%.
To `COc1ccc(OC)c(NC(=O)c2c(NCc3ccc(C)o3)sc3c2CCCCC3)c1` belongs inactive: 86%.
With `COc1cc(C2C(C(=O)OC(C)C)=C(C)N=C3SCCC(=O)N32)ccc1OCc1ccccc1` (centres undefined) the figure was inactive: 89%.
With `CC(=O)Nc1ccc(C(=O)N2CCCC2)cc1` the figure was inactive: 98%.
As to `O=C(COCc1nc2ccccc2c(=O)[nH]1)NCC1CCCCC1`, the survival was inactive: 98%.
For the molecule `CC12CC(C)(C)C(C#N)(C(N)=C1C#N)C(=C(C#N)C#N)N2` (centres undefined), the survival was inactive: 100%.
With `Cc1nc2ccn(Cc3cccnc3)c(=O)c2cc1C(=O)NCc1ccc(Cl)cc1` the figure was inactive: 73%; with `COc1ccccc1CNC(=O)CCCn1nc(C)c2c(C)n(-c3ccc(C)cc3)nc2c1=O`, inactive: 78%.
In the case of `CC(CNC(=O)c1ccc(CSc2nc3ccncc3n2Cc2cccc(F)c2)cc1)c1ccccc1` (centres undefined), the survival was inactive: 81%.
